According to patent US7473708B2, “Agents with leukotriene B4-like antiviral (enveloped RNA) activities” (priority 1996, dated 2009):

System: HSV-1
Experiment: Synthesis of HSV-1 particles in Vero cells
Conditions: 100 nM LTB4, five days

## CCCCC/C=C\C[C@@H](O)/C=C/C=C/C=C\[C@@H](O)CCCC(=O)O [LTB4, 5S,12R-dihydroxy-6,8,10,14 (Z,E,E,Z)-eicosatetraenoic acid]
  inhibition of synthesis of HSV-1 particles (decrease of HSV-1 antigen positive Vero cells): 70%
